The source of these data is paper PMC6919601, “Identification of Plasmodium dipeptidyl aminopeptidase allosteric inhibitors by high throughput screening” (PLoS ONE, 2019).

Structures are written as SMILES. Where “and” joins values, the source holds several entries; their conditions need not be identical. Identical values can stand only once. Among all 110,000 compounds or so, about 230 (0.21%) showed an effect of 50% or more. Some of the results follow.
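Note: 30 min substrate incubation versus DMSO and 10 µM JCP410 controls.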

Chain of DPAP1 (Q8IIJ9 whole entry, looked up): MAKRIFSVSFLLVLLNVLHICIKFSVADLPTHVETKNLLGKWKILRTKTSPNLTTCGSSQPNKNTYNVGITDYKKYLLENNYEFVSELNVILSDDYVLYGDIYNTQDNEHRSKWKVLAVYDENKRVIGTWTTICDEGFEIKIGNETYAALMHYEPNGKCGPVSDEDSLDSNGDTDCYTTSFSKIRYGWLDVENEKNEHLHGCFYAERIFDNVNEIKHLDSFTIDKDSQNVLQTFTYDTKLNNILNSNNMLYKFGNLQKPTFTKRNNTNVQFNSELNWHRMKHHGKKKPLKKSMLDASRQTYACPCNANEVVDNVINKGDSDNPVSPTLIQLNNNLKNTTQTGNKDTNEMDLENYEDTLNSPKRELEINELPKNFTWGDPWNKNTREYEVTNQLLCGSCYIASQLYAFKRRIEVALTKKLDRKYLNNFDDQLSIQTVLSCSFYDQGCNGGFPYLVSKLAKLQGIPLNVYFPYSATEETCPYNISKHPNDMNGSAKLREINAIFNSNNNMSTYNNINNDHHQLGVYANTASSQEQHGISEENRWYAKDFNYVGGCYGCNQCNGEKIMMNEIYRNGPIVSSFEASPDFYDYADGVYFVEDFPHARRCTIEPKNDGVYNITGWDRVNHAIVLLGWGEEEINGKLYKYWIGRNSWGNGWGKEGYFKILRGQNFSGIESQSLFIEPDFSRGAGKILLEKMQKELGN

This experiment has as its target DPAP1 (Plasmodium falciparum, UniProt Q8IIJ9). Briefly: primary screen, percent inhibition; read by cleavage of a fluorogenic dipeptide substrate; higher = more effect of the substance. The arrangement: species or system P. falciparum D10 trophozoite lysates; single well.
As for `Cc1ccc2c(cnn2C(=O)CCC(=O)NCCCOC(C)C)c1`, the “% Inhibition @ 10 uM” value is recorded as -2.88%.

For `CC(=O)N/C(=C\c1ccccc1)C(=O)Nc1ccc(C)cc1`, the “% Inhibition @ 10 uM” value is on record as -2.66%.

With `CCCNS(=O)(=O)c1ccc([N+](=O)[O-])cc1`, the “% Inhibition @ 10 uM” value was -3.55%.

`CCCCOc1ccc(C2C(=O)N(C3CCCCC3)CC(=O)N2Cc2cccs2)cc1` (stereo not drawn): the “% Inhibition @ 10 uM” value is -0.519%.

For the compound `O=[N+]([O-])c1ccc(N2CCN(C3CCCCCC3)CC2)cc1`, the “% Inhibition @ 10 uM” value is recorded as -1.81%.

For `c1ccc(C(c2ccccc2)N2CCN(c3ncnc4[nH]cnc34)CC2)cc1`, the “% Inhibition @ 10 uM” value is -3.24%.

Turning to `Cc1ccc(-c2nc(C#N)c(NCc3ccccc3)o2)cc1`, the “% Inhibition @ 10 uM” value is given as -2.59%.

Consider `COCCNC(=O)CSc1cn(CC(=O)N2CCCC2)c2ccccc12`, for which the “% Inhibition @ 10 uM” value is -1.97%.

For the compound `COc1ccc(CCNC(=O)c2cc(O)nc3ccc(S(=O)(=O)N4CCCC4)cc23)cc1OC`, the “% Inhibition @ 10 uM” value turned out to be 3.89%.

As to `O=[N+]([O-])c1ccc(CNc2ccc(F)c(F)c2)s1`, the “% Inhibition @ 10 uM” value is 5.2%.

`CCOC(=O)c1cnc2ccc(C(=O)OC)cc2c1N1CC2(C)CC1CC(C)(C)C2` (stereo not drawn): the “% Inhibition @ 10 uM” value is on record as 0.884%.

Take `CC(C)C[C@H](NC(=O)NCCc1cccs1)C(=O)NCC#N`: the “% Inhibition @ 10 uM” value is listed as -4.72%.

As for `N#CCNC(=O)[C@H](CS(=O)(=O)Cc1ccccc1)NC(=O)c1ccncc1`, the “% Inhibition @ 10 uM” value is -3.49%.

On to `CC/N=C1/SC(CC(=O)Nc2ccc(N3CCOCC3)cc2)C(=O)N1CC` (stereo not drawn), for which the “% Inhibition @ 10 uM” value came to 2.15%.

On to `COc1ccc(NC(=O)CN(c2cccc(Cl)c2C)S(C)(=O)=O)cc1`, for which the “% Inhibition @ 10 uM” value is -0.864% and 1.19%.

Consider `CC1=C(C(=O)Nc2cccc(C)c2)C(c2ccccc2)NC(S)=N1` (stereo not drawn), for which the “% Inhibition @ 10 uM” value was -0.582%.

Consider `CCC1(c2ccc3cc(OC)ccc3c2)SC(NC(C)=O)=NN1C(C)=O` (stereo not drawn), for which the “% Inhibition @ 10 uM” value was 1.5%.

For the compound `COC(=O)c1cccc(-n2c(C)cc(C=C3C(=O)c4ccccc4C3=O)c2C)c1C`, the “% Inhibition @ 10 uM” value was found to be 2.17%.

With `COc1ccc(CN(C(=O)NC2CCCC2)C2CCN(C(C)=O)CC2)cc1`, the “% Inhibition @ 10 uM” value was 4.43%.

Take `O=C(Nc1sc2c(c1C(=O)O)CCC2)c1ccccc1`: the “% Inhibition @ 10 uM” value is given as -2.17%.

On to `C=CCN1CC(c2nc3ccccc3n2CC(=C)C)CC1=O` (stereo not drawn), for which the “% Inhibition @ 10 uM” value amounted to 1.67%.

Consider `COc1ccc(C(=O)Cn2c3ccccc3n3nc(C)nc23)cc1OC`, for which the “% Inhibition @ 10 uM” value is recorded as -7.02%.

On to `CCn1c2ccccc2c2cc(CNc3ccccc3Cl)ccc21`, for which the “% Inhibition @ 10 uM” value worked out at 1.26%.

Take `CCCCCOc1ccc(C(N)CC(=O)O)cc1` (stereo not drawn): the “% Inhibition @ 10 uM” value is recorded as -1.52%.

For the compound `O=C(O)C1=Cc2sc3c(c2CS1)CCCC3`, the “% Inhibition @ 10 uM” value was 4.65%.

With `C=CCN1C(=O)/C(=C\c2ccc(N(CC)CC)cc2)C(=O)NC1=S`, the “% Inhibition @ 10 uM” value stood at 2.6%.

In the case of `Cc1sc2nc(SCC(=O)N3CCOCC3)n(-c3ccc(Cl)cc3)c(=O)c2c1C`, the “% Inhibition @ 10 uM” value is reported as 4.09%.

Turning to `CCc1nnc2sc(/C=C/c3ccccc3)nn12`, the “% Inhibition @ 10 uM” value worked out at 3.88%.

`COc1ccc(-c2c(C#N)c(SCC(N)=O)nc3c2C(=O)CC(C)(C)C3)cc1`: the “% Inhibition @ 10 uM” value is reported as -0.99%.

Regarding `CN(C)CCCn1c(=O)c2nc[nH]c2n(C)c1=O`, the “% Inhibition @ 10 uM” value turned out to be 2.14%.

For the compound `CC(C)N(CCc1ccncc1)C(=S)NCc1ccccc1`, the “% Inhibition @ 10 uM” value is listed as -4.53%.

Regarding `COc1ccc(N2C(=O)CC(N(Cc3ccco3)C(=O)CCC(=O)O)C2=O)cc1` (stereo not drawn), the “% Inhibition @ 10 uM” value is 1.08%.

As to `CC12CCC(CN(CC(O)Cn3c4ccc(Cl)cc4c4cc(Cl)ccc43)C1)C2(C)C` (stereo not drawn), the “% Inhibition @ 10 uM” value is -2.44%.

As for `COc1ccc2c(c1)cc1c(=O)n(CC(=O)NCc3ccc(Cl)cc3)nc(C)n12`, the “% Inhibition @ 10 uM” value was determined as 4.84%.

Consider `CC1CCc2c(sc(NC(=O)C3CC3)c2C(N)=O)C1` (stereo not drawn), for which the “% Inhibition @ 10 uM” value worked out at 4.52%.

On to `S=C(c1ccc2c(c1)OCO2)N1CCOCC1`, for which the “% Inhibition @ 10 uM” value is 0.0792%.

`COc1ccc2c(c1)C(=O)N(Cc1ccccc1)C1CCCCC21` (stereo not drawn): the “% Inhibition @ 10 uM” value was determined as 0.727%.

`CCCCCOc1ccc2nc3c(nc2c1)C(=O)c1ccccc1C3=O`: the “% Inhibition @ 10 uM” value is -1.6%.

With `Cc1ccc2oc(=O)c3cc(C(=O)NCCCN(C)Cc4ccccc4)sc3c2c1`, the “% Inhibition @ 10 uM” value was 3.33%.

With `CCOc1ccc(-n2c(SCc3nc(-c4cccs4)no3)nnc2-c2ccncc2)cc1`, the “% Inhibition @ 10 uM” value is -0.45%.

Consider `COc1cccc(/C=C/c2nc(C#N)c(NC(C)c3ccccc3)o2)c1` (stereo not drawn), for which the “% Inhibition @ 10 uM” value is listed as 0.895%.

For the compound `CCOc1ccc(C2C3=C(O)CC(C)(C)CC3=NC(C)=C2C(=O)Nc2ccccc2OC)cc1` (stereo not drawn), the “% Inhibition @ 10 uM” value is listed as 3.05%.

With `COc1ccc(-c2csc3ncn(CC(=O)Nc4ccc(C)cc4C)c(=O)c23)cc1`, the “% Inhibition @ 10 uM” value is -0.478%.

Turning to `COc1ccc(Nc2nc(N)c3ccccc3n2)cc1`, the “% Inhibition @ 10 uM” value is listed as -0.105%.

With `CCCN1C(=O)CCN(C(C)=O)c2ccccc21`, the “% Inhibition @ 10 uM” value is reported as 2.85%.

With `O=c1oc2ccccc2n1CCCOc1ccc(Cl)cc1`, the “% Inhibition @ 10 uM” value is -0.99%.

Turning to `COC(=O)c1ccc(-c2cc(C(=O)O)c3c(C)[nH]nc3n2)cc1`, the “% Inhibition @ 10 uM” value came to 0.0654%.

For the compound `CC1=NN(c2ccccc2)C(=O)/C1=C\N1CCN(/C=C2/C(=O)N(c3ccccc3)N=C2C)CC1`, the “% Inhibition @ 10 uM” value was -3.26%.

Turning to `COC(=O)c1sccc1NC(=O)C1=C(C)C(=O)OC12CCCCCC2`, the “% Inhibition @ 10 uM” value is listed as -11.2%.

As to `Cc1ccn2c(NC(=O)COc3ccc(Cl)cc3)c(-c3cccs3)nc2c1`, the “% Inhibition @ 10 uM” value is -3.48%.

For the compound `c1ccc2sc(SCCCN3CCOCC3)nc2c1`, the “% Inhibition @ 10 uM” value amounted to 4.42%.

Take `CCOc1ccccc1CNC(=O)Cn1ccc2cc(S(=O)(=O)N3CCCC3)ccc21`: the “% Inhibition @ 10 uM” value is listed as -8.45%.

Turning to `C/N=c1\c(NS(=O)(=O)Cc2ccccc2)c(O)oc2ccccc12`, the “% Inhibition @ 10 uM” value was 2.5%.

`COc1ccc(C2=NN(CCC(=O)NCCc3ccc(Cl)cc3)C(=O)CC2)cc1`: the “% Inhibition @ 10 uM” value is given as 2.35%.

Consider `COc1ccc2nc(/N=C/c3nc(-c4ccc(C)cc4)oc3O)sc2c1`, for which the “% Inhibition @ 10 uM” value is -3.44%.

With `Cc1nn(CC(=O)NCCCN2CCOCC2)c(=O)c2cccn12`, the “% Inhibition @ 10 uM” value is on record as -5.78%.

Take `Cc1nn(C)cc1CNC(=O)c1nn2c(C(F)(F)F)cc(-c3cccs3)nc2c1Cl`: the “% Inhibition @ 10 uM” value is given as -4.64%.

For `CC1CCCN(C(=O)c2ccc(COc3ccccc3Cl)o2)C1` (stereo not drawn), the “% Inhibition @ 10 uM” value is on record as 10.9%.

Turning to `CN(C)c1ccc(/C=C2/SC(N3CCOCC3)=NC2=O)cc1Br`, the “% Inhibition @ 10 uM” value is 4.89%.

Turning to `O=C(C1CCCN(Cc2ccccc2Cl)C1)N1CCCCC1` (stereo not drawn), the “% Inhibition @ 10 uM” value is -4.84%.

`O=c1ccn(Cc2ccccc2)c2ccnc(C(F)(F)F)c12`: the “% Inhibition @ 10 uM” value is given as -2.66%.

In the case of `Cc1nn(C)c(C)c1CN(C)C(=O)c1cc2nc(-c3ccc4c(c3)OCO4)cc(C(F)(F)F)n2n1`, the “% Inhibition @ 10 uM” value worked out at 8.69%.

With `CCN(CC)S(=O)(=O)c1ccc(C)c([N+](=O)[O-])c1`, the “% Inhibition @ 10 uM” value worked out at 4.17%.
